{"source": "PubChem BioAssay AID686979", "about": "(National Center for Advancing Translational Sciences (NCATS), 2013)", "note": "Among all 420,000 compounds or so, about 50,000 (12%) were called active. This list was built around the results that the source calls inconclusive (neither active nor inactive); the mix of calls is not that of the screen. Calls follow the shape of the dose curve; as a rule, active = well fitted inhibition curve with a large enough effect; inconclusive = small, poorly fitted or top-dose-only effect; inactive = flat fitted curve, though single readings scatter. Potencies of inconclusive entries are left out as doubtful fits. % is scaled to controls: 0 for no effect and ±100 for the full control effect; potency is read from the fitted curve at half-maximal effect; tags tell the direction and shape of the fitted curve.", "data": [{"assay": "qHTS for Inhibitors of human tyrosyl-DNA phosphodiesterase 1 (TDP1): qHTS in cells in presence of CPT; also: nearly all actives have a fitted effect of over 55% in size", "conditions": "chicken DT40 Tdp1-/-;hTDP1 cells + 20 nM CPT, ATP luminescence, 48 h; activity change, negative = growth inhibition: at 46.2 µM (top of the series)", "in_short": "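Chicken DT40 Tdp1-/- cells complemented with human TDP1, 400 cells/well, exposed to compounds plus 20 nM camptothecin for at least 48 h at 37 C; viability read as ATP content by CellTiter-Glo luminescence.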", "values": [{"smiles": "C[C@H]1CN([C@@H](C)CO)C(=O)Cc2cc(NC(=O)Nc3ccccc3)ccc2O[C@H]1CN(C)Cc1ccccc1", "Potency": "active: 20.6 µM"}, {"smiles": "O=C(c1ccccc1)N1CCN(C(=O)c2ccccc2)c2ccccc21", "Potency": "active: 8.2 µM"}, {"smiles": "C=CCNc1nc2cc(-c3ccccc3C)sc2c(=O)n1C", "Potency": "active: 14.6 µM"}, {"smiles": "O=C(Nc1cccc(Cl)c1)Nc1ccnc(-c2cccnc2)n1", "Potency": "inconclusive [inhibitor, single point]"}, {"smiles": "Cc1ccc(NC(=O)Cc2ccc(Cl)cc2)cc1S(=O)(=O)N1CCCCCC1", "Potency": "inconclusive [inhibitor, single point]"}, {"smiles": "CC1CCN(C(=O)c2cc(Cl)ccc2NC(=O)c2ccco2)CC1", "Potency": "inactive"}, {"smiles": "CCOC(=O)Cn1c(=O)cc(-c2ccccc2)c2c(C)nn(C)c21", "activity change, negative = growth inhibition": "inconclusive: -33.5% [inhibitor]"}, {"smiles": "COc1ccc(C(=O)NNc2cc(C)nc(NNC(=O)c3ccc(OC)cc3)n2)cc1", "Potency": "inactive"}, {"smiles": "COc1cccc(NC(=O)c2oc3ccccc3c2NC(=O)C(C)(C)C)c1", "Potency": "inconclusive [inhibitor, single point]"}, {"smiles": "CC(=O)Oc1ccc(Oc2ccc(-c3noc(C)n3)cc2)cc1", "Potency": "active: 20.6 µM"}, {"smiles": "Cc1ccc(N(Cc2ccc(C(=O)Nc3ccccc3C(=O)NCc3ccco3)cc2)S(C)(=O)=O)cc1C", "Potency": "inconclusive [inhibitor, single point]"}, {"smiles": "CC(=O)NNC(=O)CC(=O)Nc1nc(C23CC4CC(CC(C4)C2)C3)cs1", "Potency": "inconclusive [inhibitor, single point]"}, {"smiles": "COc1ccc(C(=O)NC(Cc2ccccc2)c2ccc3c(c2)OCCCO3)cc1", "note": "(configuration not stated)", "Potency": "inconclusive [inhibitor, full curve, poor fit]"}, {"smiles": "CCN1C(=O)[C@H]2[C@@H](c3ccc(-c4cccc(Cl)c4)cc3)N[C@@](Cc3ccccc3)(C(=O)OC)[C@H]2C1=O", "Potency": "inconclusive [inhibitor, single point]"}, {"smiles": "CN(CCc1ccccc1)C(=O)c1ccc(NC(=O)Cc2ccc(NC(=O)C3CCCN(C(=O)CCc4ccccc4)C3)cc2)cc1", "note": "(configuration not stated)", "Potency": "active: 13 µM"}, {"smiles": "CCOc1ccc(NC(=O)Cn2nc(-c3ccccc3Cl)n(CC)c2=S)cc1", "Potency": "inconclusive [inhibitor, single point]"}, {"smiles": "COc1ccc2c(CC(=O)OCC(=O)Nc3cccc(S(N)(=O)=O)c3)coc2c1", "Potency": "inactive"}, {"smiles": "COc1ccc(OC)c(CCNC(=O)c2ccc(CS(=O)Cc3cccc(Cl)c3)o2)c1", "note": "(configuration not stated)", "Potency": "active: 23.1 µM"}, {"smiles": "CCc1ccc(-n2nc(CO)c(C(=O)NCc3ccccn3)n2)cc1", "Potency": "inconclusive [inhibitor, single point]"}, {"smiles": "O=[N+]([O-])c1ccc2nc(CO)[nH]c2c1", "Potency": "inconclusive [inhibitor, full curve, poor fit]"}, {"smiles": "NC(=O)CN1CCOCCOCCN(CC(N)=O)CCOCC1", "Potency": "inactive"}, {"smiles": "COc1ccc(OC)c2sc(N3CCc4ccccc4C3)nc12", "Potency": "inactive"}, {"smiles": "O=C(NCCOc1ccccc1)c1ccccc1Cl", "Potency": "inactive"}, {"smiles": "CCN(c1ccccc1C)S(=O)(=O)c1cc2c3c(c1)CCC(=O)N3CCC2", "Potency": "inconclusive [inhibitor, full curve, poor fit]"}, {"smiles": "COc1ccc(C2=NOC3(CC(=O)N(c4ccc(F)cc4)C3=O)C2)c(OC)c1", "note": "(configuration not stated)", "Potency": "inconclusive [inhibitor, partial curve]"}, {"smiles": "CCOC(=O)C1(CCCc2ccccc2)CCN(Cc2cnn(C)c2)CC1", "Potency": "inconclusive [inhibitor, single point]"}, {"smiles": "CN(CCc1ccccn1)C(=O)CCC1CCCN(C(=O)CN2CCCCCC2)C1", "note": "(configuration not stated)", "Potency": "inactive"}, {"smiles": "Cc1cc(C)nc(NC(N)=NC(C)c2ccccc2)n1", "note": "(configuration not stated)", "Potency": "inconclusive [inhibitor, single point]"}, {"smiles": "c1ccc(SCc2nc3ccccc3[nH]2)cc1", "activity change, negative = growth inhibition": "inconclusive: -31.1% [inhibitor]"}, {"smiles": "CN(C)S(=O)(=O)c1cccc(NC(=O)C2CCCN(C(=O)c3ccc(Cl)cc3)C2)c1", "note": "(configuration not stated)", "Potency": "inconclusive [inhibitor, single point]"}, {"smiles": "COc1cc(/C=N/NC(=O)c2cccc3ccccc23)ccc1OCC(N)=O", "Potency": "inconclusive [inhibitor, partial curve]"}, {"smiles": "Cc1oc2ncnc(N3CCCCC3)c2c1C(=O)NCC1CCN(Cc2ccc(F)cc2)CC1", "Potency": "inactive"}, {"smiles": "COc1cc(OC)c2c(c1)OC(=O)CC2c1ccc(C)cc1", "note": "(configuration not stated)", "Potency": "inactive"}, {"smiles": "COC(CN(C)C(=O)C1CCCN(S(=O)(=O)c2ccc3c(c2)oc(=O)n3C)C1)OC", "note": "(configuration not stated)", "Potency": "inactive"}, {"smiles": "CCCn1nc(C(=O)Nc2ccc3nc(N4CCOCC4)sc3c2)ccc1=O", "Potency": "active: 9.2 µM"}, {"smiles": "CC(=O)c1cc2c(cc1NC(=O)Nc1cccc(Cl)c1)OCCO2", "Potency": "inconclusive [inhibitor, single point]"}, {"smiles": "O=C(c1ccco1)c1cn(CC(=O)N2CCCc3ccccc32)c2ccccc12", "Potency": "inconclusive [inhibitor, single point]"}, {"smiles": "Cc1cc(NC(=O)CSc2cn(CCNC(=O)c3ccc(Cl)cc3)c3ccccc23)no1", "Potency": "inconclusive [inhibitor, single point]"}, {"smiles": "Cc1nc(Nc2cc(F)ccc2C)c2nnn(Cc3ccccc3)c2n1", "Potency": "inconclusive [inhibitor, single point]"}, {"smiles": "CCOc1ccccc1NC(=O)c1cccc(NC(=O)C2CCCC2)c1", "Potency": "inconclusive [inhibitor, single point]"}, {"smiles": "COCCNc1nc(NCc2ccccc2OC)c2cnn(C)c2n1", "Potency": "inconclusive [inhibitor, single point]"}, {"smiles": "CC(Sc1oc(-c2ccco2)nc1S(=O)(=O)c1ccc(Br)cc1)c1ccccc1", "note": "(configuration not stated)", "Potency": "inconclusive [inhibitor, single point]"}, {"smiles": "CCOC(=O)C1CCN(C(=S)NC(=O)c2cccs2)CC1", "Potency": "inactive"}, {"smiles": "CCOC(=O)c1c(NC(=O)CSc2nc3ccccc3o2)sc(C(C)=O)c1C", "Potency": "inconclusive [inhibitor, single point]"}, {"smiles": "Cc1cccc(C)c1NC(=O)C(Cl)C(=O)c1ccccc1", "note": "(configuration not stated)", "Potency": "active: 5.17 µM"}, {"smiles": "Cc1ccc(SCc2nc3ccccc3n2CC(=O)Nc2ccc(Cl)cc2)cc1", "Potency": "active: 20.6 µM"}, {"smiles": "COc1ccc(-n2ncc(C(=O)N3CCN(c4ccccn4)CC3)c2C2CCN(C(=O)OC(C)(C)C)CC2)cc1", "Potency": "inconclusive [inhibitor, single point]"}, {"smiles": "C=CCn1c(SCC(=O)NC(N)=O)nnc1-c1cc2c(s1)CCC(CC)C2", "note": "(configuration not stated)", "Potency": "inactive"}, {"smiles": "COc1cccc2c(=O)cc(C)n(CC(=O)Nc3ccccc3C)c12", "Potency": "inconclusive [inhibitor, partial curve]"}, {"smiles": "CCC(CC)c1nn2c(=O)cc(COc3ccc(NC(=O)c4ccc(Cl)cc4)cc3)nc2s1", "Potency": "inactive"}, {"smiles": "COc1ccc(/C=C2\\C(=O)OCc3cc(OC)c(OC)cc32)cc1OC", "Potency": "inconclusive [inhibitor, single point]"}, {"smiles": "CCCCNc1nc(Oc2ccc(=O)n(-c3ccccc3)n2)nc(N(C)C)n1", "Potency": "inconclusive [inhibitor, single point]"}, {"smiles": "CC1(N2CCOCC2)CC2(O)C(=[N+]1[O-])CCc1c2no[n+]1[O-]", "note": "(configuration not stated)", "Potency": "inconclusive [inhibitor, partial curve]"}, {"smiles": "COCCCNC(=O)c1ccccc1NS(C)(=O)=O", "Potency": "inactive"}, {"smiles": "O=C(COC(=O)c1ccc(NS(=O)(=O)c2cccs2)cc1)NCc1ccco1", "Potency": "active: 4.11 µM"}, {"smiles": "N#CC1=C(N)OC2=C(C(=O)CCC2)C1c1ccc2c(c1)OCO2", "note": "(configuration not stated)", "Potency": "inactive"}, {"smiles": "CCN(CC)C(=O)COc1ccc2oc(C)c(C(=O)OC(C)C)c2c1", "Potency": "inconclusive [inhibitor, single point]"}, {"smiles": "Cc1[nH]nc2c1C(c1cc(Br)cs1)C(C#N)=C(N)O2", "note": "(configuration not stated)", "Potency": "active: 4.11 µM"}, {"smiles": "Cc1nnc(-c2ccco2)c2cn(-c3cccc(Br)c3)nc12", "Potency": "inconclusive [inhibitor, single point]"}, {"smiles": "CN(CC(=O)Nc1ccc(Cl)c(C(F)(F)F)c1)C(=O)CCN1C(=O)C2CC=CCC2C1=O", "note": "(configuration not stated)", "Potency": "active: 9.2 µM"}, {"smiles": "CC1(C)C(O)=C(c2nc3ccccc3[nH]2)C(=N)N1c1ccccc1", "Potency": "inconclusive [inhibitor, single point]"}, {"smiles": "O=C(O)c1ccccc1-c1ccccc1C(=O)Nc1ccc2c(c1)[nH]c(=O)c1ccccc12", "Potency": "inconclusive [inhibitor, full curve, poor fit]"}, {"smiles": "N#Cc1ccccc1NC(=O)c1cc(=O)c2ccccc2o1", "Potency": "inactive"}, {"smiles": "CCN(C(=O)COC(=O)c1ccccc1SCC(=O)NC1CCCCCCC1)C1CCS(=O)(=O)C1", "note": "(configuration not stated)", "Potency": "inactive"}, {"smiles": "O=C(CCCN1C(=O)NC2(CCCC2)C1=O)NCc1ccccc1", "Potency": "inactive"}, {"smiles": "CN(C)c1ccc(NC(=O)CSc2nnc(C3CCCCC3)n2N)cc1", "Potency": "inactive"}, {"smiles": "CCOC(=O)/C(=C\\c1ccccc1)C(=O)CCN1CCOCC1", "Potency": "active: 1.64 µM"}, {"smiles": "O=C(Nc1nnc(-c2ccco2)o1)c1ccc(Br)s1", "Potency": "inconclusive [inhibitor, single point]"}, {"smiles": "O=C(N/N=C/c1cn(-c2ccccc2)nc1-c1ccc(F)cc1)c1ccc2c(c1)OCO2", "Potency": "inconclusive [inhibitor, single point]"}, {"smiles": "NC(=O)C1CC(=O)N(c2ccc(OCc3ccccc3Cl)cc2)C1", "note": "(configuration not stated)", "Potency": "inconclusive [inhibitor, single point]"}, {"smiles": "Cc1nnc(N2CCN(c3ccccc3F)CC2)c2c1nnn2Cc1ccc(F)cc1", "Potency": "inconclusive [inhibitor, single point]"}, {"smiles": "COc1ccc(N2CCN(c3nc(-c4ccccc4F)nc4ccccc34)CC2)cc1", "Potency": "active: 20.6 µM"}]}]}
